Source: the supplement of paper PMC12632987
Over roughly 4,500 sequences, “median log2 fold change of GCK-ALFA target abundance (FLAG IP / Myc IP barcode read proportion)” has its median near 0.078; the lowest 2% begin near -0.6. The list shows a part of the results.

B1: GBRAP_125_3025 (protein)
chain: SAEQLVADLERIAAALGFSADDVALLGEEARRHGLKGAFIALALAEGLEEAAELLEKLSEEEVAEVVREVAAWLAANPDATPEEVKAKLLEVLKKAVAKS
B2: GBRAP_160_4561 (protein)
chain: RERARELAARLRAAVEATLAETADDSVAEIATALDVTVGEEAMEAAEDPRYSDEMVDAILAAGDEIRAALAALADASVDEIRAAVLAIVDATEARILAIA
B3: GBRAP_83_6991 (protein)
chain: AEKITVVANGDDIEEAAEIVIDLTKEEGYDVDVEIIASKEDWEKVKKMVEKLAKAGIETEVLVLVKGVTEEEAKELQKELEEIAKKHGVNIKVEVVAIEP
B4: GBRAP_166_4972 (protein)
chain: SQEELVEKLKKYLDELAEKMKTADYEEKLELLAEAAEEIEKAKKEGLSDEDLKELIKYLIELAKEVGIPLSDVYGALTILANLDEEEIDILDEAIEEVEK
B5: GBRAP_52_5931 (protein)
chain: SSEEAKKIAQEILDAALAGDEEKLKALIEKLMKEKSDEEIIEVIEELARLTAERGPEYYDVFEHIADIILDVAEKEGKDVELIDYAIARGFGILYQAEQA
B6: GBRAP_52_6014 (protein)
chain: MRERLRAFVDEVLALVRAGKEEEARALIEELVASLNEEEIELLIDVLAERAAAARPEDQEAVWRLAEMLAEALEEAGVDEALADDLLARVAAALYAAEQA
B7: GBRAP_52_6012 (protein)
chain: MEEELEKQVEEALALVKAGRLEEARKLVRKLVKSLNEEEIELLIELLARRAREAAPEDHDAVWTLAEIVAEEMEREGKDEVLADLLLARVAAALHEAELA
B8: GBRAP_160_4661 (protein)
chain: SEELEELKEEIEELGEEALKFMEGESHEQRVAVVRTMVGNIVLLADENPLVSDEAEEKIDEIGEELVKTVEANPDLSDEELRKLIEEMVEKIKEIIDELA
B9: GBRAP_52_6001 (protein)
chain: REERLRKLAEEIVAAAKAGDEDKLRELVIEAARTLSEEELRETGRLTIELLKTLGAAGVDALAALADALNDAAVEEELKPDVLGELQKEALTAAVALEAE
B10: GBRAP_35_5592 (protein)
chain: EIKEIILETAKDFAEAAIDAVKNESIEEAIAMLKAFIRYAKLAIEDLKDDLEALKEIEKLIERVIKEVEKYRSDNPEIQKLLEELKKLAKEAKEQAKKVE
B11: GBRAP_125_3081 (protein)
chain: AVAEAVAYAGRILAAFGFSAAEVAEFKAASANSTVKAVFQALALAVLDEETALKSDKLTDEQALEVLKRVAEAIAANPDLTPEEVKALLKKEIDEALAKQ
B12: GBRAP_14_3853 (protein)
chain: MEELIKAVEETAEETKKLAKEVLPEHAEEIVKKIEELAEKIKKKIKEENLNKEEVAKLMDEMAEEIAKFIKEKGFANETEIAAIRAEILNESALKLEEIE
B13: GBRAP_11_2747 (protein)
chain: KKEKLKEIAKAAEKLAKLLEELIKEGVDNEELLKEAEKALKELKKLVEEYGDESLKKLVEIIEEEFKKAKEDPENALKYLQNALAAARVLAGQVLLDIEE
B14: GBRAP_14_3864 (protein)
chain: MEELIKAVEKTAEETKAFAKELVPEHAEDVIAKIDELAEEIIEKIKKENLNKEEVAELAEEAAEELKKYMLEKGYVSEEEAAAFEAFLLSEFLLNLEEIE
B15: GBRAP_39_5674 (protein)
chain: EKEEEDEDVVSYLEGVAAKYLYETGLSLEEAYERAKKILKEYAKKHPELKELLEELIKIADEKGEEAKLVLIGVAKLIEEGTPDEEIKEKIEKIINYFKS
B16: GBRAP_160_4176 (protein)
chain: SEKLEEAEKEIREEFAEALEMVKGQSAAERAAIVAVTFGEIKLYLEEKGLLTDELEEEIDEIEDEAVATILANPDLTDEELAALLRESAERIIEALRKNS
B17: GBRAP_52_6303 (protein)
chain: MRERARALARAIVDAYLAGKEAEAEALLREFAETADDEEVRIFTEEFVRLIREARPEDLDAMARAVFAAADALEAAGKPEELVSDFLNETTRALYELELR
B18: GBRAP_160_4516 (protein)
chain: SPKLERIEKLVEEARERIIEVIDEGDVEAAITVAAVEFGEVIMEIAEDESMSDEAEDAAAEIRDKLVEELKKAKDASKEEKKKIVEEKSKELIEKLKKLS
B19: GBRAP_128_3479 (protein)
chain: SVEEVVKETRELMEKIKNSSLEEVKKLAEELVALLGSADEEAREAATEVIIEMLPELSVEKLEILADVLREKRPELDPFAATQAAEIEIEALMEAEEKEE

These binders were tested against GABARAP, O95166 (assay: median log2 fold change of GCK-ALFA target abundance (FLAG IP / Myc IP barcode read proportion) (log2 ratio); each designed protein is fused to an ALFA-tag nanobody in HEK293 cells to bring the named protein to FLAG-tagged glucokinase (GCK); Myc marks an untargeted standard; higher = target protein stabilised (more abundant)). Details: target protein: 3xFLAG-MCP-GCK-ALFA reporter; HEK293 landing pad (RPLP).
Chain of GABARAP, O95166 (O95166 whole entry, the tested form may be a part): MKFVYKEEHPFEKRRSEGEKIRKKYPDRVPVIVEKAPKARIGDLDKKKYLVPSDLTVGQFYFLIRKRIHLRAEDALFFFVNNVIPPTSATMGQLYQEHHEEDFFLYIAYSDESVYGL
Procedure, shortened: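 Sequencing of reverse-transcribed, amplified circular RNA barcodes from anti-FLAG and anti-Myc immunoprecipitates provided the readout for an ALFA-nanobody-fused binder library recombined into HEK293 landing-pad cells. Those cells were induced with 2 μg mL^−1 doxycycline, transfected with a plasmid expressing a FLAG-tagged target and a Myc-tagged standard, and lysed after 48 h. Target abundance is the per-binder median log2 ratio of FLAG to Myc barcode read proportions. Only barcodes at a proportion of ≥10^−7 in both replicates and binders with ≥3 barcodes per replicate were kept, with a 10^−6 pseudocount added before the two replicates were pooled.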
With B1 the “median log2 fold change” value was 0.156. In the case of B2, the “median log2 fold change” value is reported as 0.146. With B3 the “median log2 fold change” value was 0.073. B4 was tested, and the “median log2 fold change” value was 0.209. For B5, the “median log2 fold change” value was -0.0495. For B6, the “median log2 fold change” value was -0.157. B7 was tested, and the “median log2 fold change” value was 0.0497. B8 was tested, and the “median log2 fold change” value was 0.148. B9 was tested, and the “median log2 fold change” value was 0.16. B10 was tested, and the “median log2 fold change” value was 0.188. In the case of B11, the “median log2 fold change” value is reported as 0.25. B12 was tested, and the “median log2 fold change” value was 0.393. For B13, the “median log2 fold change” value was -0.119. B14 was tested, and the “median log2 fold change” value was -0.114. B15 was tested, and the “median log2 fold change” value was 0.813. In the case of B16, the “median log2 fold change” value is reported as -0.137. In the case of B17, the “median log2 fold change” value is reported as 0.0469. B18 was tested, and the “median log2 fold change” value was 0.404. In the case of B19, the “median log2 fold change” value is reported as 0.0244.
